In patent US20170043031A1, “IGF-1R ANTIBODY-DRUG-CONJUGATE AND ITS USE FOR THE TREATMENT OF CANCER” (PIERRE FABRE MEDICAMENT, priority 2014, published 2017):
Where a chain is given by its changes, count along the chain named. Values belong to the molecule of their own block, whether it stands above or below them.

What was measured:
IGF-1R on MCF-7 cells = target: T1, IGF-1R on MCF-7 cells (Homo sapiens, UniProt P08069); assay: IGF-1R internalization by FACS on MCF-7 cells (4° C. vs 37° C., 4 h); format: cell-based; conditions: for EC50: MCF-7, chimeric antibodies, read-out: ΔMFI_EC50
T1 construct: all generated antibodies are capable to recognize the native IGF-1R form; host or cells: MCF-7
Experimental: (§1) MCF-7 cells were incubated with 10 μg/ml of chimeric antibodies at 4° C. for 20 min. Then, cells were washed and incubated at 4° C. or 37° C. for 4 h. The quantity of cell-surface bound antibody was determined using a secondary antibody. The ΔMFI defined as the difference between MFI measured at 4° C. and MFI measured at 37° C. after a 4 hour incubation time corresponded to the quantity of internalized Ab. The percentage of internalization at 10 μg/ml of Ab were calculated as followed 100*(MFI at 4° C.−MFI at 37° C.)/MFI at 4° C. and presented in Table 11.
as §1, with “The capacity of the mAb hz208F2 VH3NL3 to be internalized was assessed by flow cytometry. MCF-7” for “MCF-7”, “of” for “of chimeric”, “13.” for “11.”
as §1, with “of humanized” for “of chimeric”, “secondary antibody on a FacsCalibur Flow cytometer (Becton Dickinson).” for “secondary antibody.”, “Ab was” for “Ab were”, “C. The humanized antibody hz208F2 H077/L018 is able to induce a significant internalization of IGF-1R.” for “C. and presented in Table 11.”

[1] = target: T2, IGF-1R on MCF-7 cell line (Homo sapiens, UniProt P08069); assay: FACS binding on MCF-7 in buffers at different pH; conditions: MCF-7, pH ranging from 5 to 8
T2 construct: all generated antibodies are capable to recognize the native IGF-1R form; host or cells: MCF-7
Experimental: In order to investigate whether some of our antibodies display such a property and to correlate this property to cytotoxic activity, the binding of the murine anti-hIGF-1R Mabs on MCF-7 cell line was done in buffers at different pH. Increasing concentrations of murine mAbs were incubated on MCF-7 cell line for 20 min at 4° C. in different pH ranging from 5 to 8. Cells were then washed 3 times and incubated with the appropriate secondary antibody coupled with Alexa 488 in FACS buffer. Cells were incubated for 20 additional minutes at 4° C. in the dark and then washed 3 times in FACS buffer. The binding of anti-hIGF-1R antibodies was immediately performed on viable cells which were identified using propidium iodide that stained dead cells. The binding EC50 expressed in molarity (M) was calculated using a nonlinear regression analysis (GraphPad Prims 4.0).
The binding of the humanized anti-IGF-1R Mabs on MCF-7 cell line was done in buffers at different pH. Increasing concentrations of humanized mAbs were incubated on MCF-7 cell line for 20 min at 4° C. in different pH ranging from 5 to 8. Cells were then washed 3 times and incubated with the appropriate secondary antibody coupled with Alexa 488 in FACS buffer. […] The binding EC50 expressed in molarity (M) was calculated using a nonlinear regression analysis (GraphPad Prims 4.0).

[2] = target: T3, human native IGF-1R on MCF-7 cell line (Homo sapiens, UniProt P08069); assay: FACS titration on MCF-7 cell line; conditions: humanized variants, binding
T3 construct: all generated antibodies are capable to recognize the native IGF-1R form; host or cells: MCF-7
Experimental: The five murine IGF-1R antibodies were chimerized. The binding properties of both the murine and the chimeric IGF-1R antibodies were evaluated by FACS analyses on the human MCF-7 breast adenocarcinoma cell line (ATCC#HTB-22) using increasing antibody concentrations. For that purpose, cells (1×10^6 cells/ml) were incubated with IGF-1R antibodies for 20 min. at 4° C. in FACS buffer (PBS, 0.1% BSA, 0.01% NaN3). They were then washed 3 times and incubated with the appropriate secondary antibody coupled with Alexa 488 for 20 additional minutes at 4° C. in the dark before being washed 3 times in FACS buffer. The binding of anti-IGF-1R antibodies was immediately performed on viable cells which were identified using propidium iodide (that stains dead cells). The maximum of signal intensity obtained with each antibody was designed as Bmax and expressed in mean of fluorescence intensity (MFI). The EC50 of binding expressed in molarity (M) was calculated using a nonlinear regression analysis (GraphPad Prims 4.0).
The binding properties of the humanized variants were evaluated by FACS analyses on the human MCF-7 breast adenocarcinoma cell line and the monkey cell line Cos-7 using increasing antibody concentrations. […] The EC50 of binding expressed in molarity (M) was calculated using a nonlinear regression analysis (GraphPad Prims 4.0).

[3] = MCF-7, 10 μg/ml, 4 h (Table 13c)

EC50 (IGF-1R on MCF-7 cells): 270 pM
B1: c212A11: chimeric 212A11 antibody, heavy chain SEQ ID No. 24, light chain SEQ ID No. 29 (antibody)
heavy: QVQLQQSGPELVKPGASVKMSCKASGYTFTSYYIHWVKQRPGQGLEWIGWIWPGDGSTKYNEKFKGKTTLTADKSSSTAYMFLSSLTSEDSAVYFCASPMITPNYAMDYWGQGASVTVSSASTKGPSVFPLAPSSKSTSGGTAALGCLVKDYFPEPVTVSWNSGALTSGVHTFPAVLQSSGLYSLSSVVTVPSSSLGTQTYICNVNHKPSNTKVDKRV[human IgG1 Fc not written out]
light: DIQMTQTTSSLSASLGDRVTISCRASQDINKYLNWYQQQPDGTVKLLIYYTSRLHSGVPSRFSGRGSGTDYSLTISNLEQEDIATYFCQQGSTLPYTFGGGTKLEIKRTVAAPSVFIFPPSDEQLKSGTASVVCLLNNFYPREAKVQWKVDNALQSGNSQESVTEQDSKDSTYSLSSTLTLSKADYEKHKVYACEVTHQGLSSPVTKSFNRGEC
modifications: c212A11, heavy chain, full length; c212A11, light chain, full length

EC50 (IGF-1R on MCF-7 cells): 230 pM
B2: c213B10: chimeric 213B10 antibody, heavy chain SEQ ID No. 27, light chain SEQ ID No. 32 (antibody)
heavy: B1 heavy with P9S, K63R
light: B1 light with N30S, V44I, S76T, T93A
modifications: c213B10, heavy chain, full length; c213B10, light chain, full length

EC50 (IGF-1R on MCF-7 cells): 220 pM
B3: c214F8: chimeric 214F8 antibody, heavy chain SEQ ID No. 25, light chain SEQ ID No. 30 (antibody)
heavy: B1 heavy with P9S, M20L, K63R
light: B1 light with I21F, N30S, V44I, S76T, T93A
modifications: c214F8, heavy chain, full length; c214F8, light chain, full length

EC50 (IGF-1R on MCF-7 cells): 440 pM
B4: c219D6: chimeric 219D6 antibody, heavy chain SEQ ID No. 26, light chain SEQ ID No. 31 (antibody)
heavy: B1 heavy with A16D, T28S, Y33F, A72T, S84N
light: B1 light with N30S
modifications: c219D6, heavy chain, full length; c219D6, light chain, full length

% Internalization (IGF-1R on MCF-7 cells; [3]): 88%
ΔMFI (IGF-1R on MCF-7 cells; [3]): 468
binding capacity at acidic pH [1]: Acidic pH decreases binding capacity
B5: hz208F2 H077/L018: humanized 208F2 variant, heavy chain SEQ ID No. 81, light chain SEQ ID No. 59 (antibody)
heavy: QVQLVQSGAEVKKPGASVKVSCKASGYTFTSYYIHWVRQAPGQGLEWMGWIWPGDGSTKYAQKFQGRVTMTRDTSTSTVYMELSSLRSEDTAVYFCASPMITPNYAMDYWGQGTLVTVSSASTKGPSVFPLAPSSKSTSGGTAALGCLVKDYFPEPVTVSWNSGALTSGVHTFPAVLQSSGLYSLSSVVTVPSSSLGTQTYICNVNHKPSNTKVDKRV[human IgG1 Fc not written out]
light: DIQMTQSPSSLSASVGDRVTITCRASQDISKYLNWYQQKPGKAPKLLIYYTSRLQSGVPSRFSGRGSGTDYSLTISSLQPEDFATYFCQQGSTLPYTFGGGTKVEIKRTVAAPSVFIFPPSDEQLKSGTASVVCLLNNFYPREAKVQWKVDNALQSGNSQESVTEQDSKDSTYSLSSTLTLSKADYEKHKVYACEVTHQGLSSPVTKSFNRGEC
modifications: hz208F2 heavy chain H077 full length; hz208F2 light chain L018 full length

EC50 [2]: 580 pM
B6: hz208F2 H076/L021: humanized 208F2 variant, heavy chain SEQ ID No. 79, light chain SEQ ID No. 61 (antibody)
heavy: B5 heavy with F95Y
light: B5 light with Q55H, Y71F
modifications: hz208F2 heavy chain H076 full length; hz208F2 light chain L021 full length

EC50 [2]: 660 pM
B7: hz208F2 H049/L021: humanized 208F2 variant, heavy chain SEQ ID No. 65, light chain SEQ ID No. 61 (antibody)
heavy: B5 heavy with I34M, T74K, T76S, F95Y
light: B5 light with Q55H, Y71F
modifications: hz208F2 heavy chain H049 full length; hz208F2 light chain L021 full length
